Measured values from publication PMC2867956, “Interdomain Interactions Control Ca^2+-Dependent Potentiation in the Cation Channel TRPV4” (PLoS ONE, 2010).

Molecular target: TRPV4-YFP, Q9HBA0
Experiment: FRET or BRET; acceptor photobleaching FRET of CFP- and YFP-fused full-length TRPV4 in unstimulated HEK293 cells; hypotonic medium, 4α-PMA or carbachol lowered the FRET transiently
Conditions: remark: other sources report otherwise

FRET efficiency: 19.6
B1: CFP-TRPV4 (natural protein)
chain: MADSSEGPRAGPGEVAELPGDESGTPGGEAFPLSSLANLFEGEDGSLSPSPADASRPAGPGDGRPNLRMKFQGAFRKGVPNPIDLLESTLYESSVVPGPKKAPMDSLFDYGTYRHHSSDNKRWRKKIIEKQPQSPKAPAPQPPPILKV[about 250 residues left out]DTRHLSRKFKDWAYGPVYSSLYDLSSLDTCGEEASVLEILVYNSKIENRHEMLAVEPINELLRDKWRKFGAVSFYINVVSYLCAMVIFTLTAYYQPLEGTPPYPYRTTVDYLRLAGEVITLFTGVLFFFTNIKDLFMKKCPGVNSLFIDGSFQLLYFIYSVLVIVSAALYLAGIEAYLAVMVFALVLGWMNALYFTRGLKLTGTYSIMIQKILFKDLFRFLLVYLLFMIGYASALVSLLNPCANMKVCNEDQTNCTVPTYPSCRDSETFSTFLLDLFKLTIGMGDLEMLSSTKYPVVFIILLVTYIILTFVLLLNMLIALMGETVGQVSKESKHIWKLQWATTILDIERSFPVFLRKAFRSGEMVTVGKSSDGTPDRRWCFRVDEVNWSHWNQNLGIINEDPGKNETYQYYGFSHTVGRLRRDRWSSVVPRVVELNKNSNPDEVVVPLDSMGNPRCDGHQQGYPRKWRTDDAPL
